Data: the supplement of paper PMC12217912
The list shows a part of the results. The full chains were built here from the parent and the listed change. Values near 0.05 are background.

B1: TEV protease; numbered along this chain (parent)
chain: MGESLFKGPRDYNPISSSICHLTNESDGHTTSLYGIGFGPFIITNKHLFRRNNGTLVVQSLHGVFKVKDTTTLQQHLVDGRDMIIIRMPKDFPPFPQKLKFREPQREERICLVTTNFQTKSMSSMVSDTSCTFPSGDGIFWKHWIQTKDGQCGSPLVSTRDGFIVGIHSASNFTNTNNYFTSVPKNFMELLTNQEAQQWVSGWRLNADSVLWGGHKVFMVKPEEPFQPVKEATQL

Variants of: B1
Assay: raw area under fraction-flipped curve 0-4 h after induction (AUC4h, not background-subtracted), DNA-recorder readout of cleavage of the substrate (dimensionless); higher = more cleavage of the substrate by the protease variant
Details: temperature: 34 °C; time window: 0-4 h after rhamnose induction
Procedure: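 In vivo DNA recorder in E. coli TOP10(DE3) ΔrhaA at 34 °C. Each TEVp single-site mutant (parent TEVp 0) is paired with a single-site variant of the 7-mer TEVs (canonical ENLYFQ|S). The substrate sits between flexible linkers in a Bxb1-sfGFP-TEVs-SsrA fusion, so cleavage stabilises Bxb1 and speeds flipping of a recombination array, read by NGS. The value is the raw area under the fraction-flipped curve over 0-4 h after rhamnose induction (AUC4h), with ≥20 reads per time point. It is not background-subtracted; inactive controls average about 0.047.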
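Further: Bxb1 expression induced with 0.2% (w/v) L-rhamnose at OD600 near 0.5, cultures sampled hourly, flipped fraction per protease–substrate barcode pair counted by paired-end Illumina sequencing.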

| Variant | area with substrate DNLYFQS | area with substrate KNLYFQS | area with substrate MNLYFQS | area with substrate PNLYFQS | area with substrate WNLYFQS | area with substrate YNLYFQS | area with substrate HNLYFQS | area with substrate INLYFQS | area with substrate NNLYFQS | area with substrate QNLYFQS |
| --- | --- | --- | --- | --- | --- | --- | --- | --- | --- | --- |
| N193H | 0.0364 | 0.0584 | 0.076 | 0.102 | 0.0611 | 0.0614 |  |  |  |  |
| N193F | 0.0768 |  |  | 0.0603 |  | 0.0572 | 0.0585 | 0.0594 | 0.0641 | 0.0576 |
| N193V | 0.0735 |  |  |  |  |  |  |  | 0.0594 |  |
| W203F | 0.0629 | 0.0663 | 0.0677 | 0.073 | 0.0493 | 0.0696 | 0.0573 |  | 0.076 |  |
| W203Q | 0.0674 |  | 0.0853 |  | 0.051 | 0.0479 | 0.0559 |  |  |  |
| Q151V | 0.0686 | 0.0466 |  | 0.0625 | 0.0519 | 0.0497 | 0.0449 |  |  |  |
| D161L | 0.0534 |  | 0.0592 |  | 0.0645 | 0.0508 | 0.0381 |  | 0.0485 |  |
| D161N | 0.0662 | 0.0782 | 0.06 | 0.0681 | 0.0537 | 0.0369 | 0.0512 | 0.0536 | 0.0577 |  |
| L156P | 0.0577 | 0.0608 | 0.0443 | 0.0497 |  |  | 0.0596 | 0.0495 | 0.0366 |  |
| N206V | 0.0644 |  |  |  | 0.0528 |  | 0.0555 | 0.071 |  |  |
| N206Q | 0.0617 | 0.0627 |  | 0.0401 | 0.0606 | 0.063 | 0.0674 |  | 0.0641 |  |
| N206W | 0.0698 |  | 0.0615 | 0.0581 | 0.0516 |  | 0.0655 | 0.0588 | 0.0643 |  |
| N206M | 0.0754 |  |  |  |  |  | 0.0694 |  | 0.066 |  |
| A196C | 0.09 |  | 0.0662 |  |  |  |  |  |  |  |
| A196P | 0.0486 |  |  | 0.0715 | 0.0664 | 0.0624 | 0.0578 | 0.0349 | 0.0582 |  |
| V157K | 0.0594 |  |  | 0.0569 |  |  | 0.0638 |  |  |  |
| V157H | 0.048 | 0.0421 | 0.0554 | 0.0658 | 0.0461 |  | 0.0471 |  | 0.0185 | 0.0539 |
| V157C | 0.12 |  |  | 0.0729 |  |  |  |  |  |  |
| I145S | 0.113 |  | 0.0728 | 0.0649 | 0.069 |  | 0.0692 | 0.0632 | 0.0791 |  |
| G162T | 0.0712 | 0.076 |  | 0.0517 | 0.0527 |  | 0.0585 |  | 0.0589 |  |

| Variant | area with substrate DNLYFQS | area with substrate KNLYFQS | area with substrate MNLYFQS | area with substrate PNLYFQS | area with substrate WNLYFQS | area with substrate YNLYFQS | area with substrate HNLYFQS | area with substrate INLYFQS | area with substrate NNLYFQS | area with substrate QNLYFQS |
| --- | --- | --- | --- | --- | --- | --- | --- | --- | --- | --- |
| G162Q | 0.0854 |  |  | 0.063 | 0.0608 | 0.0604 | 0.0704 | 0.0528 | 0.0784 | 0.069 |
| F163C | 0.0953 |  |  |  |  | 0.0766 |  |  |  |  |
| F163G | 0.0965 | 0.074 |  | 0.073 | 0.0516 |  |  | 0.0679 |  |  |
| S209Q | 0.0686 | 0.0733 | 0.0352 |  | 0.0548 | 0.0347 | 0.0622 | 0.0477 | 0.115 |  |
| A170D | 0.0565 |  |  |  |  |  |  |  |  |  |
| A170L | 0.0622 |  | 0.0577 | 0.0482 | 0.0507 |  | 0.0465 |  |  |  |
| A170P | 0.0451 | 0.071 |  |  | 0.0806 |  |  |  |  |  |
| K185R | 0.0858 | 0.0654 |  | 0.0647 | 0.0687 | 0.0676 | 0.0705 |  | 0.0814 |  |
| K185D | 0.0747 | 0.0664 | 0.0619 | 0.0674 |  |  | 0.0701 |  | 0.0536 |  |
| T181W | 0.0713 | 0.0644 | 0.0874 | 0.0622 | 0.0364 |  | 0.0511 |  |  |  |
| T181N | 0.0746 | 0.0617 |  |  |  | 0.0771 |  |  |  | 0.0475 |
| T181D | 0.0693 | 0.0669 | 0.0499 |  |  |  |  |  |  |  |
| T181Q | 0.0572 |  |  | 0.0545 |  | 0.0395 |  | 0.0667 |  |  |
| L191N | 0.0625 | 0.0446 |  | 0.0539 | 0.054 |  | 0.0514 |  | 0.0452 | 0.0483 |
| S201M | 0.103 | 0.072 |  | 0.0652 |  | 0.0567 | 0.0585 |  |  |  |
| S201T | 0.0999 | 0.079 | 0.0812 | 0.0649 | 0.0543 |  | 0.0649 |  |  |  |
| N177W | 0.0654 | 0.0712 |  | 0.0598 | 0.0517 |  |  |  | 0.0565 |  |
| N177R | 0.109 | 0.081 | 0.0693 | 0.0841 | 0.0595 |  | 0.0571 |  |  |  |
| V165H | 0.0588 |  | 0.0355 |  | 0.0467 | 0.0343 | 0.0438 |  | 0.003 |  |
| V165K | 0.0626 |  | 0.0456 | 0.0519 | 0.0503 |  | 0.0529 | 0.0526 |  |  |

Same assay, conditions: temperature: 34 °C; time window: 0-4 h after rhamnose induction

| Variant | area with substrate SNLYFQS | area with substrate VNLYFQS | area with substrate GNLYFQS | area with substrate FNLYFQS | area with substrate TNLYFQS | area with substrate LNLYFQS | area with substrate RNLYFQS |
| --- | --- | --- | --- | --- | --- | --- | --- |
| N193F | 0.0665 |  |  |  |  |  |  |
| N193V |  | 0.057 |  |  |  |  |  |
| W203F |  |  | 0.0458 |  |  |  |  |
| W203Q |  | 0.0555 | 0.0446 | 0.0623 |  |  |  |
| Q151V |  |  |  |  | 0.0753 |  |  |
| D161L | 0.0373 |  | 0.0584 | 0.0536 | 0.0517 | 0.058 |  |
| D161N |  | 0.0546 | 0.0667 | 0.0581 | 0.0555 | 0.0448 | 0.0605 |
| L156P | 0.0586 |  | 0.0499 | 0.0481 | 0.0568 | 0.0564 | 0.065 |
| N206V | 0.0684 | 0.0586 |  |  | 0.0537 | 0.0532 |  |
| N206Q |  |  | 0.0743 |  | 0.065 | 0.0405 |  |
| N206W | 0.0446 |  |  |  | 0.0561 | 0.0578 | 0.069 |
| N206M |  |  |  | 0.0748 | 0.0596 |  |  |
| A196C |  |  |  | 0.0641 |  |  |  |
| A196P | 0.0662 |  |  | 0.055 | 0.0381 |  |  |
| V157K |  |  |  |  | 0.062 |  |  |
| V157H |  | 0.0524 | 0.058 |  | 0.0426 | 0.0627 |  |
| V157C |  |  |  |  | 0.0534 |  |  |
| I145S | 0.0828 |  |  |  | 0.0753 |  | 0.0812 |
| G162T | 0.0544 |  |  |  | 0.0629 | 0.0548 |  |
| G162Q | 0.0695 | 0.0686 |  | 0.0549 |  |  |  |

| Variant | area with substrate SNLYFQS | area with substrate VNLYFQS | area with substrate GNLYFQS | area with substrate FNLYFQS | area with substrate TNLYFQS | area with substrate LNLYFQS | area with substrate RNLYFQS |
| --- | --- | --- | --- | --- | --- | --- | --- |
| F163C | 0.0671 | 0.0459 |  | 0.0633 |  |  | 0.0625 |
| F163G |  |  | 0.0559 |  |  |  |  |
| S209Q | 0.0801 | 0.051 | 0.0621 |  | 0.066 | 0.046 |  |
| A170D | 0.0468 |  |  |  |  | 0.0403 |  |
| A170L |  |  | 0.0748 |  | 0.0576 |  |  |
| A170P |  | 0.0426 |  |  |  |  |  |
| K185R | 0.053 |  |  |  |  | 0.0772 |  |
| K185D |  |  |  |  | 0.0551 | 0.0621 |  |
| T181W | 0.0649 | 0.0737 |  |  | 0.0604 |  | 0.079 |
| T181N |  |  |  |  | 0.0699 |  |  |
| T181D | 0.0429 |  | 0.0586 |  |  |  | 0.0322 |
| T181Q |  |  | 0.0557 | 0.0612 | 0.0654 |  | 0.0592 |
| L191N | 0.0614 |  |  | 0.0521 | 0.0515 | 0.0536 | 0.0555 |
| S201M | 0.0508 |  | 0.0519 |  | 0.0731 | 0.0614 | 0.0505 |
| S201T |  | 0.0107 |  | 0.0691 | 0.0243 | 0.0616 |  |
| N177W | 0.0488 |  |  | 0.0612 | 0.0534 |  |  |
| N177R | 0.0815 |  | 0.0764 |  |  | 0.0553 | 0.0548 |
| V165H | 0.0336 |  |  | 0.0475 |  | 0.0394 |  |
| V165K | 0.0527 | 0.0547 | 0.0431 |  | 0.0699 | 0.0617 |  |
